According to the supplement of paper PMC11417369:
± gives the standard deviation of the averaged measurements. Some of the results follow.

Tested on: PfAP2-G AP2 domain (GST-tagged)
Experiment: gcPBM binding intensity (ln(normalized median fluorescence intensity)); higher = stronger DNA binding
Summary of the method: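 Using an Agilent 4 × 180k array, primer-extended double-stranded 36-bp intergenic genomic probes and negative controls were exposed for 1 h to GST-fused P. falciparum DNA-binding domains expressed in E. coli. Binding was carried out in 1× PBS with 1% milk, 0.2 mg/ml BSA, 0.5% salmon testes DNA and 0.03% Triton X-100, and protein was detected with Alexa488 anti-GST antibody and a 488 nm scan. Binding intensity is the highest Masliner-normalised natural-log median intensity across replicate spots of either probe orientation.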

Row | Sequence | gcPBM binding intensity (ln)
1 | TATTCGTCTTTTTTCTCACACACCCTTTTTATTAAA [CACACA_site2508] | 10.2 ± 0.18
2 | AAATTTAGGAACATTATATATATATATATATATATA [CACACA_negctrl_site862] | 9.98 ± 0.52
3 | CAAAAAAAGGAAAAGATACACACCGTAAATTAAAAT [CACACA_site3612] | 9.88 ± 0.11
4 | AACAAACAAACAAATATACACACTTTTGTATAAAGT [CACACA_site3509] | 9.915 ± 0.078
5 | ATTATACATTTTAGATGTACATATTTTAAATTTAAT [XGTACX_site5174] | 11.4 ± 0.83
6 | ATATTTTGTATAATCACACACACTATTCTTAAATAG [CACACA_site7270] | 10.1 ± 0.16
7 | AGAAATTAATCGAAGTGTACATATAAACATACATAT [XGTACX_site5518] | 11.3 ± 0.69
8 | TACATATATATATACACACATACATATATATACGCA [CACACA_site792] | 9.95 ± 0.13
9 | AACCTCGTGTAATATGCATGTTCCCTTCAAAGTTTT [TGCATGCA_site459] | 9.96 ± 0.099
10 | CCCACATAAAAAAATAAACACACATATGTATATATA [CACACA_site9040] | 9.86 ± 0.16
11 | AAATGGGCTTATTTATGTACTTAAATATATCTACCC [XGTACX_site3823] | 11.4 ± 0.86
12 | TAATCAATTCAATATTGTACGATATTTACCTTTAAA [XGTACX_site4678] | 11 ± 0.62
13 | AAAAAAATCTATATTACACACATATATACCTATATA [CACACA_site7464] | 9.86
14 | TATTTATGTTATAATTGTACAATAAACAAATTTTTT [XGTACX_site5306] | 10.9 ± 0.53
15 | TACATTGTATACATATGTACACATATATATATATAT [XGTACX_site6174] | 11.5 ± 0.71
16 | ATAGGTGAATACTAATATAAATTCAAGAGGGAAAAG [CACACA_negctrl_site720] | 9.79 ± 0.13
17 | TTTACATTAAATCACGCACACAAAAAAAAAAAAAAA [CACACA_site2418] | 10.2 ± 0.67
18 | GAAATGTATAAATCCATACACACATAAATTTTAATA [CACACA_site2364] | 9.865 ± 0.021
19 | TAAATATAAAAATGCACACACACAAAAAAAAAAAAA [CACACA_site895] | 9.91 ± 0.55
20 | TATATATATATAATGTGTACATACTAAATAGAGGAC [XGTACX_site4153] | 11.7 ± 1.1
21 | ATCTATGGAGCTTATACACACTTTTATATTTTAACA [CACACA_site5994] | 10.05 ± 0.057
22 | TTTGAATTTTTATATACACACATTATTATATTATAT [CACACA_site1593] | 9.975 ± 0.078
23 | TATTTATTTGTGGGGTGTACGAAATTTTTTTTTTTT [XGTACX_site5091] | 11.2 ± 0.69
24 | TTTCTTTTTAAAGTGTATTAAAATTGAATAAAAAGA [XGTACX_negctrl_site408] | 10.1 ± 0.34
